Laboratory results: PubChem BioAssay AID1963576 (National Center for Advancing Translational Sciences (NCATS), 2024)
The campaign covered roughly 46,000 compounds. About 60 (0.1%) were called active. Not shown: some 3% with an inconclusive outcome. Calls follow the shape of the dose curve; as a rule, active = well fitted inhibition curve with a large enough effect; inconclusive = small, poorly fitted or top-dose-only effect; inactive = no such curve, though single readings can be large or run the other way. The list shows a part of the results.

Experiment: Primary qHTS assay for Inhibitors of ovarian cancer metastasis using an organotypic tumor microenvironment (TME) model. Also: nearly all actives have a fitted effect of over 65% in size.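 As to activity change, negative = inhibition: plate controls were DMSO wells for no effect and tomatine positive control wells for full effect.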
Conditions: SKOV3ip1-GFP adhesion/invasion on 3D omental model, fluorescence; series mostly up to 45.8 µM; activity change, negative = inhibition: at the top concentration
Method in brief: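 A 3D layer of primary human omental fibroblasts, mesothelial cells, fibronectin and collagen I, grown 48 hr, received SKOV3ip1-GFP cells in serum-free medium plus compounds at 0.36-46 umol/L. After 2 hr RT and 16 hr 37 C, fixed adherent GFP cells were counted; normalized to DMSO and tomatine.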
With COc1ccc(C(=O)NCCn2cc(SCC(=O)Nc3ccccc3)c3ccccc32)cc1OC the “outcome” value was “inactive”. For Cc1cc(C)cc(NC(=O)C2CCCN2S(=O)(=O)c2ccc3c(c2)C(C)(C)C(=O)N3C)c1 (configuration not stated), the “activity change, negative = inhibition” value was inactive: 22.5%. For CCOC(=O)C1(C)C=C(Nc2ccc(OC)cc2)C(=O)N1c1ccccc1 (configuration not stated), the “outcome” value was “inactive”. With COc1ccccc1NC(=O)c1oc2ccccc2c1NC(=O)c1c(F)cccc1F the “activity change, negative = inhibition” value was inactive: -8.2%. With CCOC(=O)c1ccc(NC(=O)c2ccc3c(c2)c(C)c(C)n3Cc2ccc(F)cc2)cc1 the “activity change, negative = inhibition” value was inactive: -0.292%. In the case of COc1ccc(Cn2cc(C(=O)c3ccc(Cl)cc3)c(=O)c3cc4c(cc32)OCO4)cc1, the “activity change, negative = inhibition” value is reported as inactive: -11.4%. In the case of Cc1cc(C)c(Cn2c3ccccc3c3cnn(CC(=O)NC4CCCCCC4)c(=O)c32)c(C)c1, the “activity change, negative = inhibition” value is reported as inactive: -2.48%. In the case of Cc1ccc(-n2nc3c(N4CCC(C(=O)N5CCC(C)CC5)CC4)nnc(C)c3c2C)cc1, the “activity change, negative = inhibition” value is reported as inactive: 1.54%. With COc1cc(OC)cc(C(=O)Nc2ccc(S(=O)(=O)N3CCCCC3c3cccnc3)cc2)c1 (configuration not stated) the “activity change, negative = inhibition” value was inactive: -2.8%. With O=C(Nc1cccc(Cl)c1Cl)c1cc(S(=O)(=O)N2CCC3(CC2)OCCO3)ccc1F the “activity change, negative = inhibition” value was inactive: -3.53%. In the case of CCc1ccc(Nc2nn3c(=O)c4cc5c(cc4nc3s2)OCO5)cc1, the “activity change, negative = inhibition” value is reported as inactive: 4.39%. In the case of COC(=O)c1cc2oc3ccccc3c2n1Cc1nc(-c2cccc(Cl)c2)oc1C, the “activity change, negative = inhibition” value is reported as inactive: 2.3%. For CC(C)(Sc1cc(C(C)(C)C)c(O)c(C(C)(C)C)c1)Sc1cc(C(C)(C)C)c(O)c(C(C)(C)C)c1, the “activity change, negative = inhibition” value was inactive: -1.1%. For CCOc1nc(NC(=O)NS(=O)(=O)Oc2cccc(F)c2)nc(-c2ccccc2)n1, the “outcome” value was “inactive”. In the case of CC(=O)Nc1nonc1-c1nnc(SCc2ccccc2C)n1C, the “activity change, negative = inhibition” value is reported as inactive: -12.7%. In the case of COc1ccc(CNC(=O)c2ccc3c(c2)N(Cc2ccccc2F)C(=O)c2ccccc2S3=O)cc1 (configuration not stated), the “outcome” value is reported as “inactive”. With Cc1ccc(C2=Nc3ccccc3N(CC(=O)NCc3ccc(Cl)cc3)C(=O)C2)cc1C the “activity change, negative = inhibition” value was inactive: 12%. In the case of COc1ccc(OC)c(NC(=O)Cc2c(C(=O)O)[nH]c3ccc(Cl)cc23)c1, the “outcome” value is reported as “inactive”. For CCc1ccccc1NC(=O)Cc1ccc(-n2c(C)nc3cccnc32)cc1, the “activity change, negative = inhibition” value was inactive: 9.87%. With COc1cccc(-c2ccc3c(N)c(C(=O)Nc4ccc(Cl)cc4F)sc3n2)c1 the “activity change, negative = inhibition” value was inactive: -12%. With O=C(CSc1oc(-c2ccccc2)nc1S(=O)(=O)c1ccc(Br)cc1)NC1CCCCC1 the “activity change, negative = inhibition” value was inactive: 4.15%. With O=C(NCCN1CCN(c2ccccc2F)CC1)C1COc2ccccc2C1 (configuration not stated) the “activity change, negative = inhibition” value was inactive: 1.52%. With CCn1c(=O)c2cc(C(=O)Nc3cc(C)c(Cl)cc3OC)sc2c2ccccc21 the “activity change, negative = inhibition” value was inactive: 24.8%. With Cc1cc(C)n(-c2nc3cc(Cl)c(Cl)cc3nc2Nc2ccc(F)cc2C)n1 the “activity change, negative = inhibition” value was inactive: 1.19%. With Cc1cccc(C(=O)Nc2c(-c3ccc(F)cc3)nc3ccccn23)c1 the “outcome” value was “inactive”. For Cc1ccc(NC(=O)c2cc3c(Cl)nc4ccc(C)cc4c3s2)c(Cl)c1, the “activity change, negative = inhibition” value was inactive: -1.35%. For COc1ccc(NC(=O)CSc2nc3ccccc3n2CC(=O)N2CCCC(C)C2)cc1 (configuration not stated), the “activity change, negative = inhibition” value was inactive: 2.35%. For Cc1ccc(C)c(N2CCN(C(=O)c3cc4c(=O)n(Cc5cccnc5)ccc4nc3C)CC2)c1, the “activity change, negative = inhibition” value was inactive: -6.49%. With O=C(c1ccc(Cl)cc1)N1CCCCC1CCN1CCOCC1 (configuration not stated) the “outcome” value was “inactive”. For CCOC(=O)c1sc(NC(=O)c2nc3ncccn3n2)c(C(=O)OC(C)C)c1C, the “activity change, negative = inhibition” value was inactive: 5.51%. With COc1ccc(CNC(=O)c2cc(-c3cccs3)nc3ccccc23)c(OC)c1 the “activity change, negative = inhibition” value was inactive: -2.77%. With CCOc1ccccc1N1CC(c2nc3ccccc3n2CCOc2ccc(OC)cc2)CC1=O (configuration not stated) the “activity change, negative = inhibition” value was inactive: -12.9%. For CC(=O)N(Cc1cccnc1)c1nc2c(C)cc(C)cc2s1, the “activity change, negative = inhibition” value was inactive: 8.47%. In the case of Cc1ccc(-c2nc3ccccn3c2Nc2c(C)cccc2C)o1, the “activity change, negative = inhibition” value is reported as inactive: 10.9%. For CC1CCc2c(sc3nnn(Cc4ccccc4)c(=O)c23)C1 (configuration not stated), the “activity change, negative = inhibition” value was inactive: 10.6%. With Cc1ccc(NS(=O)(=O)c2ccc3[nH]c4c(c3c2)CCCC4)c(C)c1 the “outcome” value was “inactive”. With Cc1nn(CC(=O)NC2CCCCC2)c(=O)c2cc3cc(F)ccc3n12 the “outcome” value was “inactive”. For Cn1cnnc1SCC(=O)Nc1cc(C(=O)O)cc(C(=O)O)c1, the “activity change, negative = inhibition” value was inactive: -2.13%. For COc1ccc(-c2ccc(CNc3ccc4[nH]c(=O)[nH]c4c3)o2)cc1Cl, the “activity change, negative = inhibition” value was inactive: 8.05%. In the case of COc1ccc(S(=O)(=O)c2c(Nc3ccc(C)cc3)sc(C(=O)c3ccc(C)cc3)c2N)cc1, the “activity change, negative = inhibition” value is reported as inactive: -1.93%. With Cc1ccc(-n2nc(C)c3c(C)cc(=O)n(CC(=O)Nc4ccc(Br)cc4F)c32)cc1 the “activity change, negative = inhibition” value was inactive: 0.987%. In the case of Cc1cc(=O)n2[nH]c(NCc3ccc(F)cc3)nc2n1, the “activity change, negative = inhibition” value is reported as inactive: -5.59%. For COc1ccc(NC(=O)c2sc3nc4c(cc3c2N)CN(C(C)C)CC4)c(OC)c1, the “activity change, negative = inhibition” value was inactive: -7.9%. In the case of COc1cc(-c2noc(CSc3nc(-c4ccccc4)cc(=O)[nH]3)n2)cc(OC)c1OC, the “activity change, negative = inhibition” value is reported as inactive: -7.42%. For Cc1cccc(C(=O)NCC(c2ccc3c(c2)OCO3)N2CCN(c3ccccc3F)CC2)c1 (configuration not stated), the “activity change, negative = inhibition” value was inactive: -13.2%. For Cc1ccc(Cl)cc1NC(=O)Nc1c(C)n(C)n(-c2ccccc2)c1=O, the “activity change, negative = inhibition” value was inactive: 0.888%. In the case of CCOC(=O)CSc1nc2ccc(NC(=O)c3ccc(F)cc3)cc2s1, the “activity change, negative = inhibition” value is reported as inactive: -7.28%.
